The text below walks through data of PMC4336329 (PLoS ONE, 2015).

Among all 310,000 compounds or so, about 2,200 (0.71%) showed an effect of 50% or more. The effect is printed as a negative number. The list shows a part of the results.

Chain of human ether-à-go-go-related gene (hERG) potassium channel (Q12809 whole entry, looked up): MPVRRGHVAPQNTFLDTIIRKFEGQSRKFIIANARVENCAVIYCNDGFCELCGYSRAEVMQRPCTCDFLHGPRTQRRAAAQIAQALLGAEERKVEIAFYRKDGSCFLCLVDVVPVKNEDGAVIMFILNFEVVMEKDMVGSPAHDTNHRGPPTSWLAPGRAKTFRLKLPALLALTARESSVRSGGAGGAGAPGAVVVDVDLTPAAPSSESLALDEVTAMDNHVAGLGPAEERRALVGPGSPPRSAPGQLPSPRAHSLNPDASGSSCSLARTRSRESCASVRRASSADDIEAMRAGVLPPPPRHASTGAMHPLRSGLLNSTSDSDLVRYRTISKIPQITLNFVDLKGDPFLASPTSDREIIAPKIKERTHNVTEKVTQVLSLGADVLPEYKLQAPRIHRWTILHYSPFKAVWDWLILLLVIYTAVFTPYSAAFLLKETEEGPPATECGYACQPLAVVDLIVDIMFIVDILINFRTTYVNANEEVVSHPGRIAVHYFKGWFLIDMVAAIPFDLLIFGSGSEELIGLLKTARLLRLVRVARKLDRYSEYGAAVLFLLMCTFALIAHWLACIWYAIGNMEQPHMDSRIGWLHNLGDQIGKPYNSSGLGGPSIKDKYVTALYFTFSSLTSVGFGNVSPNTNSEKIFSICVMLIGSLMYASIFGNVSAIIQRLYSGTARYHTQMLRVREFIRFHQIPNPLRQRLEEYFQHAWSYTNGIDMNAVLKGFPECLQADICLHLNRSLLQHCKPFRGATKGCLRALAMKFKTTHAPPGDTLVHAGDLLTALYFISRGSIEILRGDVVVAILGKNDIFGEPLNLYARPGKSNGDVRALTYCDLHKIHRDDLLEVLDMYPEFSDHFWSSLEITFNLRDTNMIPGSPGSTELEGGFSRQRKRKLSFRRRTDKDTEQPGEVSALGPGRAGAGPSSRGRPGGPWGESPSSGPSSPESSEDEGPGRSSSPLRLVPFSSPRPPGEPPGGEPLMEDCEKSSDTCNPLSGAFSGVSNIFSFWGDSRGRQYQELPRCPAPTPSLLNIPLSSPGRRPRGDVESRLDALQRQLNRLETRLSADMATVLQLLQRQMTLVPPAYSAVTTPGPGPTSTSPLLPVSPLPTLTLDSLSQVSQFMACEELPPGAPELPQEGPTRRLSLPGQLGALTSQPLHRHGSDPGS

This test addresses human ether-à-go-go-related gene (hERG) potassium channel (human, UniProt Q12809). As to the kind of experiment: primary screen, population patch clamp on CHO cells stably expressing hERG.
With `COc1ccc(/C=N/NC(=O)C2c3ccccc3Oc3ccccc32)c(OC)c1`, the “hERG current change (%, negative = inhibition) at 1uM” value is 11.6%.

Regarding `O=C(Oc1cccc(NC2=NS(=O)(=O)c3ccccc32)c1)c1cccnc1`, the “hERG current change (%, negative = inhibition) at 1uM” value came to 22.3%. Take `CCCCNC(=O)C(=O)NCCCn1ccnc1`: the “hERG current change (%, negative = inhibition) at 1uM” value is reported as 9.93%.

Consider `CC(C(=O)Nc1ccccc1-c1ccccc1)N(C)Cc1nc2ccccc2c(=O)[nH]1` (stereo not shown), for which the “hERG current change (%, negative = inhibition) at 1uM” value is on record as 12.1%. On to `O=C(c1cn(Cc2ccccc2)c2ccccc12)N1CCCCC1`, for which the “hERG current change (%, negative = inhibition) at 1uM” value stood at 6.07%.

`Cn1c(=O)c2c(nc(NCCO)n2C)n(C)c1=O`: the “hERG current change (%, negative = inhibition) at 1uM” value amounted to 14.8%. The result for `COc1ccc(Br)c(C(=O)N2CCN(S(=O)(=O)/C=C/c3ccccc3)CC2)c1` reads 1.93%. For `COc1cccc(OCC(O)CNC(=O)c2oc3ccc(C)cc3c2C)c1` (stereo not shown) the value was 11%; for `Cc1ccc(NC(=O)CN(C)C(=O)COc2ncnc3ccc(Br)cc23)cc1`, 14%; for `O=C(O)CCCN1C(=O)/C(=C/c2ccncc2)SC1=S`, 10.1%.

In the case of `COc1ccc(C(CNC(=O)c2ccc3c(c2)OCCO3)N(C)C)cc1` (stereo not shown), the “hERG current change (%, negative = inhibition) at 1uM” value worked out at 10%. For `CN(CC(=O)Nc1cccc(F)c1)C(=O)c1ccc(N2CCOCC2)c([N+](=O)[O-])c1` the value was -15.1%; for `N#Cc1c(NC(=O)CN2CCN(C(=O)c3ccco3)CC2)sc2c1CCCCC2`, 1.72%. For `Cc1c(Br)c([N+](=O)[O-])nn1C(C)C(=O)NCc1cccs1` (stereo not shown) the value was 0.399%; for `Cc1cc(C)c2[nH]c(=O)c(CN(Cc3ccco3)C(=O)C3CCCO3)cc2c1` (stereo not shown), 3.59%. For `COc1ccc(CNC(=O)COC(=O)C2=COCCO2)cc1` the value was 6.94%; for `COc1cccc(C(=O)NC2C(=O)N3C(C(=O)O)=C(COC(C)=O)CSC23)c1` (stereo not shown), 10.6%. For the molecule `Cc1ccc(N(CN2CCCC2=O)C(=O)c2ccc(OC(C)C)cc2)cc1`, the “hERG current change (%, negative = inhibition) at 1uM” value was 10.5%. `O=C(N/N=C/c1ccccc1C(=O)O)c1cccc(S(=O)(=O)N2CCOCC2)c1`: the “hERG current change (%, negative = inhibition) at 1uM” value is -12%. As to `O=C(COC(=O)C1CC2CCCC(C1)C2=O)Nc1nc(-c2ccc(F)c(F)c2)cs1` (stereo not shown), the “hERG current change (%, negative = inhibition) at 1uM” value is listed as 3.96%. On to `CCOc1ccc(OCC)c(NC(=O)C2CCCN2S(=O)(=O)c2cccc3cccnc23)c1` (stereo not shown), for which the “hERG current change (%, negative = inhibition) at 1uM” value is given as 7.29%. As for `O=C(NC(=S)N1CCN(Cc2ccc3c(c2)OCO3)CC1)c1cccc(Br)c1`, the “hERG current change (%, negative = inhibition) at 1uM” value is 11.1%. For `COc1ccc(C)cc1NC(=O)c1sc2ncnc(N3CCN(c4ccccn4)CC3)c2c1C`, the “hERG current change (%, negative = inhibition) at 1uM” value is 5.86%.

Consider `CCOc1ccc(/C=N/NC(=O)c2ccc(Cn3cc([N+](=O)[O-])cn3)o2)cc1`, for which the “hERG current change (%, negative = inhibition) at 1uM” value was found to be 1.9%. The result for `Cl.O=C(CNC1=NCCC1)c1ccc(Cl)cc1` reads 2.52%; that for `O=C(CSc1ccc(Cl)cc1)N1CCN(c2ccc([N+](=O)[O-])cc2Cl)CC1`, -9.62%; that for `S=c1[nH]ccn1-c1cccc(Cl)c1`, 13.3%. For `Cc1ccc(NC(=O)CCNC(=O)c2ccco2)cc1` the value was 8.25%; for `Cc1cccc2c(=O)cc(C(F)(F)F)[nH]c12`, 13.8%; for `CCN(C(=O)COC(=O)c1cc(S(=O)(=O)Nc2c(C)n(C)n(-c3ccccc3)c2=O)ccc1Cl)C1CCCCC1`, -0.145%. Regarding `CCCCn1c(N)c(N(CCOC)C(=O)c2cc(-c3ccc(OC)cc3)nc3ccccc23)c(=O)[nH]c1=O`, the “hERG current change (%, negative = inhibition) at 1uM” value is reported as -0.502%. For `COc1ccc(CCN(C)C(=O)c2cc(S(=O)(=O)N3CCCCCC3)ccc2OC)cc1OC` the value was -5.57%; for `CSCCC(NC(=O)c1ccccc1)C(=O)NNC(=O)c1csc(N2CCOCC2)n1` (stereo not shown), 9.72%; for `CCOC(=O)C1CCCN(C(=O)/C=C/c2ccc(OC)cc2)C1` (stereo not shown), -0.521%. Take `COc1ccc(OC)c(/C=C/C(=O)N2CCN(S(=O)(=O)c3ccc(C)cc3C)CC2)c1`: the “hERG current change (%, negative = inhibition) at 1uM” value is 2.08%. In the case of `COc1ccccc1OCc1nc(C#N)c(N2CC(C)CC(C)C2)o1` (stereo not shown), the “hERG current change (%, negative = inhibition) at 1uM” value is recorded as -0.921%.

As for `O=C(CN1CCCC1)OCCCc1ccccc1`, the “hERG current change (%, negative = inhibition) at 1uM” value amounted to 17%. On to `Cc1cccc(NC2=Nc3ccccc3N3C2=Nc2c(c(C)nn2-c2ccccc2)C3c2ccc(O)c(O)c2)c1` (stereo not shown), for which the “hERG current change (%, negative = inhibition) at 1uM” value came out at 3.03%. The result for `CSc1ccc(C#N)cc1NC(=O)c1cccnc1Cl` reads 16.3%; that for `Cc1ccc(CCNC(=O)C2CCN(S(=O)(=O)N3CCC4(CC3)OCCO4)CC2)cc1`, 9.02%. The result for `CCc1nnc(NC(=O)CSc2nnc(-c3ccc(NS(=O)(=O)c4ccccc4)cc3)o2)s1` reads 17.1%; that for `Cc1nc(N2CCC3(CC2)OCCO3)c2nnn(Cc3ccccc3F)c2n1`, 0.16%; that for `O=C(O)CCn1cc(-c2ccc(F)cc2)nc1-c1ccncc1`, 11.4%.

Consider `NC(=O)c1cc(N)ccc1N1CCCCC1`, for which the “hERG current change (%, negative = inhibition) at 1uM” value is given as 5.55%. For `Cn1ccnc1SCC(=O)c1c[nH]c2ccccc12` the value was 16.1%.

Consider `CCOC(=O)c1ccc(NCc2cccnc2)cc1`, for which the “hERG current change (%, negative = inhibition) at 1uM” value came out at 8.24%.

In the case of `O=C(NNS(=O)(=O)c1cccc(Cl)c1)c1cc(-c2ccc(F)cc2)nc2ccccc12`, the “hERG current change (%, negative = inhibition) at 1uM” value came out at 8.1%. Regarding `CC(=O)c1ccccc1NC(=O)C1CCCN(C(=O)c2ccc(Cl)cc2)C1` (stereo not shown), the “hERG current change (%, negative = inhibition) at 1uM” value is listed as -7.87%. The result for `CCOc1cc(NC(=O)c2cccs2)c(OCC)cc1NC(=O)CCC(=O)NCCN1CCOCC1` reads 11.3%. For `Cc1cc(C)c(C#N)c(SCC(=O)Nc2ccccc2)n1` the value was 11.4%; for `COc1ccc(N(C(C)C(=O)N/N=C/c2ccc(OC(C)C)cc2)S(C)(=O)=O)cc1` (stereo not shown), 4.36%; for `O=C(O)CC(NC(=O)C12CC3CC(CC(C3)C1)C2)c1cccc(Cl)c1` (stereo not shown), 7.61%.

Consider `Cc1ccc(S(=O)(=O)NCCOc2cc(C)ccc2C)cc1`, for which the “hERG current change (%, negative = inhibition) at 1uM” value is reported as 8.75%.

As to `O=Cc1ccc(OC(=O)C2CC(=O)N(c3ccc(F)cc3)C2)cc1` (stereo not shown), the “hERG current change (%, negative = inhibition) at 1uM” value was determined as 15.6%. In the case of `CCOC(=O)C1(Cc2cccc(F)c2)CCN(CC(O)CO)CC1` (stereo not shown), the “hERG current change (%, negative = inhibition) at 1uM” value was 12.9%.

For `Cc1ccn2c(=O)nc(SCC(=O)c3ccccc3)nc2c1`, the “hERG current change (%, negative = inhibition) at 1uM” value is recorded as 3.64%.

Turning to `COC(=O)c1c(NC(=O)c2ccc([N+](=O)[O-])o2)sc2c1CCN(C(C)C)C2.Cl`, the “hERG current change (%, negative = inhibition) at 1uM” value worked out at 8.41%. Take `COC(=O)C(O)(CC(=O)Nc1cc(OC)c(OC)c(OC)c1)C(F)(F)F` (stereo not shown): the “hERG current change (%, negative = inhibition) at 1uM” value worked out at 14.7%. For `COc1ccc(C)cc1NC(=O)c1cc(S(=O)(=O)N2CCC3(CC2)OCCO3)ccc1F` the value was -3.95%.

As for `O=S(=O)(Nc1ccc(S(=O)(=O)N2CCCCC2)cc1)c1ccc(Br)s1`, the “hERG current change (%, negative = inhibition) at 1uM” value turned out to be 6.74%. For the molecule `Cc1nc2c(C(=O)NCCC(C)C)c[nH]n2c(=O)c1Cl`, the “hERG current change (%, negative = inhibition) at 1uM” value was 6.36%. The result for `CC(=O)C1=C(O)C(=O)N(c2ccc(Br)cc2)C1c1cccc([N+](=O)[O-])c1` (stereo not shown) reads 18.1%; that for `CCCCCCOC(=O)Nc1ccc(S(=O)(=O)Nc2cccc([N+](=O)[O-])c2)cc1`, 8.97%; that for `CCCC(=O)Nc1nc2ccc(NC(=O)c3ccccc3F)cc2s1`, 14.1%. The result for `COCCn1c(C)cc(C(=O)COC(=O)c2ccccc2Br)c1C` reads -21.6%; that for `Cn1c2ccccc2c2cnn(CC(=O)Nc3ccc(Cl)cc3)c(=O)c21`, 8.19%. Regarding `COc1ccc(N(CC(=O)NC2CCCC2)C(=O)c2ccc(N3CCCCC3)nc2)cc1`, the “hERG current change (%, negative = inhibition) at 1uM” value came out at 17.3%. Regarding `CCCCC(=O)Oc1ccccc1C1SCc2cc(C)c(C)cc2CS1`, the “hERG current change (%, negative = inhibition) at 1uM” value was found to be 13.9%. For the molecule `CCn1c2ccccc2c2cc(NC(=O)C/C(C)=N/NC(=O)c3ccccc3N)ccc21`, the “hERG current change (%, negative = inhibition) at 1uM” value is given as 5.42%.

On to `COc1ccc(Br)cc1S(=O)(=O)Nc1cccc(C)n1.Cl`, for which the “hERG current change (%, negative = inhibition) at 1uM” value is given as 8.39%. With `CCCCn1c(N)c(N(CCOC)C(=O)c2cc(-c3ccncc3)nc3ccccc23)c(=O)[nH]c1=O`, the “hERG current change (%, negative = inhibition) at 1uM” value worked out at 18.9%.

For the molecule `O=C(CN1CCC(O)(c2cccc(C(F)(F)F)c2)CC1)NCCc1ccccc1`, the “hERG current change (%, negative = inhibition) at 1uM” value was determined as 2.25%. The result for `CCCC(=O)N(c1ccc2oc(C)c(C(C)=O)c2c1)S(=O)(=O)c1ccc(C(=O)O)cc1` reads 17.6%; that for `CCOC(=O)N1CCC(Nc2c(NCCCN3CCN(C4CCCCC4)CC3)c(=O)c2=O)CC1`, 6.83%. For `COc1cc(S(=O)(=O)N(CCc2ccccc2)Cc2cccs2)ccc1-n1cnnn1` the value was 12.9%; for `O=[N+]([O-])c1ccc(NCc2ccc(Cl)cc2)nc1`, 15.4%; for `O=c1[nH]c2ccc(N/C(=N/S(=O)(=O)c3ccccc3)c3ccccc3)cc2[nH]1`, 18%. Consider `C=CCOc1ccc2nnc(C)n2n1`, for which the “hERG current change (%, negative = inhibition) at 1uM” value turned out to be 8.77%.

Regarding `O=C(Nc1cc(Cl)cc(Cl)c1)N1CCCN(Cc2ccccc2)CC1`, the “hERG current change (%, negative = inhibition) at 1uM” value is listed as -22.9%. The result for `COc1cc(NC(=O)c2ccc(-c3csc(C)n3)cc2)c(OC)cc1Cl` reads 11.9%. Consider `COC(=O)C(C)N1C(=O)S/C(=C\c2cc(C)n(-c3ccccn3)c2C)C1=O` (stereo not shown), for which the “hERG current change (%, negative = inhibition) at 1uM” value was determined as 5.84%. For `Cc1cc(C)c2c(n1)SCC(=O)N2CC(=O)Nc1ccccc1Cl` the value was 12.5%; for `COC(=O)/C(=C1/Oc2cc3c(cc2S1)OCO3)C(F)(F)F`, 7.79%. As for `COc1ccc(/C=N/n2c(C)nc3sc(C)c(C)c3c2=O)cc1OC`, the “hERG current change (%, negative = inhibition) at 1uM” value was 11.3%. Consider `CCC(C)N(CCNC(=O)CC1Oc2ccccc2NC1=O)C1CCCCC1` (stereo not shown), for which the “hERG current change (%, negative = inhibition) at 1uM” value is listed as -35.6%.
